“And” between values parts separate entries of the source, which are not always exact repeats. Equal values may be shown once. Hit rate of the full screen: of about 410,000 compounds, about 5,000 (1.2%) were called active. The shares of active, inactive and inconclusive entries below differ from those in the screen. Calls come from the whole dose curve; as a rule, active = well fitted inhibition curve with a large enough effect; inconclusive = small, poorly fitted or top-dose-only effect; inactive = no such curve, though single readings can be large or run the other way. Potencies beside an inconclusive call are fits to weak or partial responses and may not hold up.
Test: qHTS for Inhibitors of TGF-b; note: nearly all actives have a fitted effect of over 65% in size
Details: HepG2 CAGA-GFP TGF-b/SMAD3 reporter, GFP fluorescence, 18 h, TGF-beta stimulated, 500 pg/mL final; series mostly up to 46.1 µM; activity, negative = inhibition: at the top concentration
Procedure, shortened: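 Using HEPG2 CAGA-GFP reporter cells at 1000 cells/well, we pinned test compounds, stimulated with recombinant TGF-beta (500 pg/mL final) and measured total well GFP after 18 h.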
% is set by controls: 0 for no effect and ±100 for the full control effect; potency is the fitted concentration of half-maximal effect; tags give direction and shape of the fitted curve.

SMILES | Potency | activity, negative = inhibition
CC(C)CN1CCC(=O)N([C@H](CSc2ccccc2)Cc2ccccc2)CC1 | inconclusive: 35.5 µM [inhibitor, single point] | –
O=C(NCc1cccs1)c1cc(-c2cccc(Cl)c2)on1 | inconclusive: 35.5 µM [inhibitor, single point] | –
Cc1ccc(-n2c(O)c(C=Nc3ccccc3-c3n[nH]c(=S)[nH]c3=O)c3ccccc3c2=O)cc1C | inconclusive: 15.8 µM [inhibitor, single point] | –
O=C(Nc1cccc(Cl)c1)c1nc[nH]c1C(=O)Nc1ccccc1F | – | inactive: 6.02%
C=CCN1C2CCCC1CC(NC(=O)Nc1cc(C)cc(C)c1)C2 (stereo not given) | – | inactive: 6.26%
CC1=C(c2ccc(C(C)C)cc2)S(=O)(=O)N=C1N1CCN(c2ccccc2F)CC1 | – | inactive: -3.12%
CC1CN(c2ccc([N+](=O)[O-])c(NCCOc3ccccc3)c2)CC(C)N1 (stereo not given) | inconclusive: 35.5 µM [inhibitor, single point] | –
CC(C)C[C@H](N)c1nnc(SCc2ccc(Cl)cc2Cl)o1 | inconclusive: 35.5 µM [inhibitor, single point] | –
Cc1oc(-c2ccc(Cl)cc2)nc1CSCC(=O)NC1CCN(Cc2ccccc2)CC1 | inconclusive: 14.1 µM [inhibitor, partial curve, poor fit] | –
COc1ccc(C2=NS(=O)(=O)N(C)C(C(=O)Nc3ccc(C(C)=O)cc3)=C2)cc1OC | inconclusive: 10 µM [inhibitor, partial curve] | –
CCCCCCC(=O)Oc1cccc(C2=CC(=O)CC(C)(C)C2=O)c1 | – | inactive: 17.5%
CC(=O)c1ccccc1OCc1ccc(S(=O)(=O)Cc2ccccc2)cc1 | inconclusive: 14.1 µM [inhibitor, partial curve, poor fit] | –
COc1cc(/C=C/c2ccc3cccc([N+](=O)[O-])c3n2)ccc1OCC(=O)O | inconclusive: 35.5 µM [inhibitor, single point] | –
CCOC(=O)c1cc(OC(=O)c2ccccc2F)n(-c2ccccc2)n1 | – | inactive: -7.14%
CCOC(=O)c1ccc(NS(=O)(=O)c2cn(C)cn2)cc1 | – | inactive: -5.96%
O=C(Nc1ccc2c(c1)CCCN2C(=O)c1cccs1)c1cccc(F)c1 | – | inactive: -16.1%
CN(C)/C=C/C(=O)c1cnc(-c2cccc(Cl)c2)s1 | inconclusive: 35.5 µM [inhibitor, single point] | –
Cc1cccc(-c2nc(CN3CCN(Cc4cccc(F)c4)CC3)c(C)o2)c1 | inconclusive: 12.6 µM [inhibitor, partial curve, poor fit] | –
CCOc1ccccc1NC(=O)Cn1nnc(C(=O)NCc2cccs2)c1N | inconclusive: 1.78 µM [inhibitor, full curve, poor fit] and inconclusive: 2 µM [inhibitor, full curve, poor fit] | –
CCOc1ccccc1NC(=O)c1cc(-c2ccncc2)nc2c(Cl)cccc12 | – | inactive: 3.41%
CN(C)CCNC(=O)/C(=C/c1ccc(-c2ccc(Cl)cc2)o1)NC(=O)c1ccccc1 | inconclusive: 15.8 µM [inhibitor, single point] | –
CCCC(=O)N1CC(=O)Nc2ccc(Br)cc2C1c1ccc(F)cc1 (stereo not given) | – | inactive: 0%
Cc1cccc(/N=C/c2c(O)ccc3oc4c(c23)CCCC4)n1 | active: 15.8 µM | –
COc1ccc(-c2cc(CCCC(=O)NCCc3cc(OC)ccc3OC)no2)cc1 | inconclusive: 35.5 µM [inhibitor, single point] | –

SMILES | Potency | activity, negative = inhibition
COc1ccc(-c2nc(NC(=O)c3ccco3)sc2C)cc1 | – | inactive: -18.2%
Cc1cc(NC(=O)OC2CCCCC2)ccc1[N+](=O)[O-] | inconclusive: 15.8 µM [inhibitor, single point] | –
CCOC(=O)c1c(C)n(C)c2c(C)cc(O)c(OC(=O)CC)c12 | – | inactive: -0.463%
O=C(CCl)N1N=C(c2ccco2)CC1c1cccs1 (stereo not given) | inconclusive: 35.5 µM [inhibitor, partial curve, poor fit] | –
COC(=O)C1=C(C(=O)OC)[C@]2([C@H]3C/C=C\CN[C@@H](Cc4ccccc4)C(=O)N3Cc3ccccc3)C=C[C@H]1O2 | inconclusive: 17.8 µM [inhibitor, single point] | –
Cc1nc2c(c(C)c1CCC(=O)NCc1ccc(F)cc1)c(=O)n(C)c(=O)n2C | inconclusive: 3.16 µM [inhibitor, partial curve] | –
Cn1c(SCC(=O)N2CCCCC2)nc2cccnc21 | – | inactive: -15.5%
COc1ccc(-c2noc(CNC(=O)c3cc(OC)c(OC)c(OC)c3)n2)cc1 | inconclusive: 0.112 µM [inhibitor, full curve, poor fit] | –
COC(=O)c1ccc(NC(=O)CSC2=NCCN2)cc1 | inconclusive: 35.5 µM [inhibitor, single point] | –
Cc1ccsc1C(=O)Nc1ccc2c(c1)OCCO2 | – | inactive: 5.97%
COc1cccc(-c2nc(-c3ccc(Br)o3)no2)c1 | inconclusive: 22.4 µM [inhibitor, single point] | –
Cc1[nH]c2ccc(C(=O)NCCCN3CCCCC3)cc2c1C | inconclusive: 35.5 µM [inhibitor, single point] | –
Cc1ccc(NC(=O)CSc2nc3ccccc3c(=O)n2CCCC(=O)N2CCCC2)cc1 | inconclusive: 6.31 µM [inhibitor, single point] | –
CCc1c(-c2ccccc2)nc2ccccc2c1C(=O)NC(C)c1ccccc1 (stereo not given) | inconclusive: 7.94 µM [inhibitor, partial curve] | –
CCOc1ccccc1NC(=O)c1nc(S(=O)(=O)Cc2cccc(C)c2)ncc1Cl | inconclusive: 3.16 µM [inhibitor, partial curve, poor fit] and inconclusive: 3.98 µM [inhibitor, single point] | –
O=C(NC(c1ccc2c(c1)OCO2)c1ccccn1)C1CCN(CCOc2ccccc2)CC1 (stereo not given) | – | inactive: -2.03%
COc1ccc(-c2cccc(CCC(=O)N3CCN(c4cc(C)ccc4C)CC3)c2)cc1 | inconclusive: 20 µM [inhibitor, single point] | –
COc1cc(C=C(C#N)c2ccc([N+](=O)[O-])cc2)ccc1O | – | inactive: -2.79%
CC(C)OC(=S)N/C(=N\S(=O)(=O)c1ccccc1)c1ccccc1 | – | inactive: -14.9%
O=C(Nc1ccccc1O)N1c2ccccc2Sc2ccccc21 | inconclusive: 20 µM [inhibitor, partial curve, poor fit] | –
CCOc1ccccc1NC(=O)CSc1c2c(nc3ccc(Cl)cc13)CCCC2 | – | inactive: -7.21%
Cc1ccc(-c2nc(CS(=O)CC(=O)NCCN3CCCCCC3)c(C)o2)cc1 (stereo not given) | active: 12.6 µM | –
CCN(CC)c1ccc(NC(=O)c2c(C)nn(-c3ccc(F)cc3)c2-n2cccc2)c(C)c1 | inconclusive: 22.4 µM [inhibitor, single point] | –
Cc1ccc(OCC(=O)N/N=C2\CCOc3c(C)cccc32)cc1 | inconclusive: 0.316 µM [inhibitor, full curve, poor fit] | –

SMILES | Potency | activity, negative = inhibition
O=C(COc1ccccc1)Nc1cc(C(F)(F)F)ccc1N1CCCC1 | inconclusive: 11.2 µM [inhibitor, partial curve] | –
CC(O)CNCCNCc1c(OCc2ccccc2)ccc2ccccc12 (stereo not given) | active: 11.2 µM | –
O=c1c2ccccc2nc2n1C1(CCCCC1)Cc1ccccc1-2 | inconclusive: 10 µM [inhibitor, partial curve, poor fit] | –
CC12CCC(=O)C=C1CCC1C3CC(O)C(O)(C(=O)CO)C3(C)CC(O)C12F (stereo not given) | – | inactive: 33.6%
CC(=O)N(C)N1c2ccccc2CCc2ccccc21 | inconclusive: 35.5 µM [inhibitor, single point] | –
COc1ccc(C)cc1S(=O)(=O)N(C)CC(=O)NC1CCCCC1 | inconclusive: 17.8 µM [inhibitor, single point] | –
O=C(CCc1ccccc1)c1ccc2c(c1)OCCCO2 | inconclusive: 15.8 µM [inhibitor, single point] | –
CCOC(=O)CN1C(=O)C(=O)N(Cc2c(F)cccc2Cl)C1=O | – | inactive: -21.9%
CCN(CC)CCNC(=O)c1ccc(NC(=O)C2CCN(S(=O)(=O)c3ccc4c(c3)OCCO4)CC2)cc1 | inconclusive: 5.62 µM [inhibitor, single point] | –
COc1ccc(CC(=O)NNc2ncnc3c2cnn3C)cc1OC | – | inactive: 3.1%
CCc1nnc(NC(=O)CCC(=O)NC2CCCCCCC2)s1 | – | inactive: -6.22%
CC(C)c1ccc(CC(=O)N2CCC2(C)C(=O)Nc2cnc3ccccc3c2)cc1 (stereo not given) | – | inactive: -10.2%
Fc1ccccc1Nc1c2c(nc3ccccc13)CCC2 | inconclusive: 35.5 µM [inhibitor, single point] | –
O=c1[nH]c(C2CCN(S(=O)(=O)c3ccccc3)CC2)nc2c1nnn2Cc1c(F)cccc1Cl | inconclusive: 35.5 µM [inhibitor, single point] | –
COc1ccc(-c2cc(=O)oc3cc(OCC(=O)NCc4ccccn4)ccc23)cc1 | inconclusive: 35.5 µM [inhibitor, single point] | –
Nc1ccn(C2OC(CO)C(O)C2F)c(=O)n1 (stereo not given) | – | inactive: -27.5%
COc1cccc(CN2C(=O)c3ccccc3Sc3ccc(C(=O)NCc4ccccc4)cc32)c1 | – | inactive: 0%
COc1ccccc1C(=O)Nc1c(C(=O)Nc2cc(Cl)ccc2C)sc2nc(C)cc(C)c12 | – | inactive: -17.8%
O=C(C[N+]12CN3CN(CN(C3)C1)C2)c1ccc(Br)cc1 | – | inactive: -3.61%
COc1cccc(N2CCN(C(=O)c3cnc4c(-c5ccccc5)c(C)nn4c3C)CC2)c1 | – | inactive: 20.2%
COc1ccc(-c2cc(C)no2)cc1S(=O)(=O)N1CCN(c2cccc(C)c2)C(C)C1 (stereo not given) | inconclusive: 3.55 µM [inhibitor, single point] | –
O=C(Nc1ccccc1)c1cnc(N2CCCCC2)c2ccccc12 | inconclusive: 35.5 µM [inhibitor, single point] | –
